Source: the supplement of paper PMC8728848
The other results are listed elsewhere or left out.

Experiments:
Test in all cases: glycan array binding signal (z-score within array); higher = stronger binding
Conditions in all cases: glycan notation: IUPAC condensed, linker removed
[1] = molecular target: Neu5Ac(a2-3)Gal
Summary of the method: (§1)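 Negative Z-scores can be read as non-binding. The Z-score is calculated within each array and then averaged across arrays of one protein sequence at different concentrations or buffers and across linkers. Arrays, 3228 in all, were curated from the Consortium for Functional Glycomics database and kept only where the protein sequence was available.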

[2] = molecular target: Neu5Ac(a2-3)Gal(b1-3)GalNAc
Summary of the method: as §1

[3] = molecular target: Neu5Ac(a2-3)Gal(b1-3)GalNAc(b1-3)Gal(a1-4)Gal(b1-4)Glc
Summary of the method: as §1

[4] = molecular target: Neu5Ac(a2-3)Gal(b1-3)GalNAc(b1-4)[Neu5Ac(a2-3)]Gal(b1-4)Glc
Summary of the method: as §1

[5] = molecular target: Neu5Ac(a2-3)Gal(b1-3)GalNAc(b1-4)[Neu5Ac(a2-8)Neu5Ac(a2-3)]Gal(b1-4)Glc
Summary of the method: as §1

[6] = molecular target: Neu5Ac(a2-3)Gal(b1-3)GalNAc6S
Summary of the method: as §1

[7] = molecular target: Neu5Ac(a2-3)Gal(b1-3)GlcNAc
Summary of the method: as §1

[8] = molecular target: Neu5Ac(a2-3)Gal(b1-3)GlcNAc(b1-2)Man
Summary of the method: as §1

[9] = molecular target: Neu5Ac(a2-3)Gal(b1-3)GlcNAc(b1-2)Man(a1-3)[GlcNAc(b1-4)][Neu5Ac(a2-3)Gal(b1-3)GlcNAc(b1-2)Man(a1-6)]Man(b1-4)GlcNAc(b1-4)GlcNAc
Summary of the method: as §1

[10] = molecular target: Neu5Ac(a2-3)Gal(b1-3)GlcNAc(b1-2)Man(a1-3)[Neu5Ac(a2-3)Gal(b1-3)GlcNAc(b1-2)Man(a1-6)]Man(b1-4)GlcNAc(b1-4)GlcNAc
Summary of the method: as §1

[11] = molecular target: Neu5Ac(a2-3)Gal(b1-3)GlcNAc(b1-3)Gal(b1-3)GlcNAc
Summary of the method: as §1

[12] = molecular target: Neu5Ac(a2-3)Gal(b1-3)GlcNAc(b1-3)Gal(b1-4)GlcNAc
Summary of the method: as §1

[13] = molecular target: Neu5Ac(a2-3)Gal(b1-3)GlcNAc(b1-3)GalNAc
Summary of the method: as §1

[14] = molecular target: Neu5Ac(a2-3)Gal(b1-3)GlcNAc(b1-4)Gal(b1-4)Glc
Summary of the method: as §1

[15] = molecular target: Neu5Ac(a2-3)Gal(b1-3)GlcNAc(b1-6)GalNAc
Summary of the method: as §1

[16] = molecular target: Neu5Ac(a2-3)Gal(b1-3)GlcNAc6S
Summary of the method: as §1

[17] = molecular target: Neu5Ac(a2-3)Gal(b1-3)[Fuc(a1-4)]GlcNAc
Summary of the method: as §1

[18] = molecular target: Neu5Ac(a2-3)Gal(b1-3)[Fuc(a1-4)]GlcNAc(b1-3)Gal(b1-3)[Fuc(a1-4)]GlcNAc
Summary of the method: as §1

[19] = molecular target: Neu5Ac(a2-3)Gal(b1-3)[Fuc(a1-4)]GlcNAc(b1-3)Gal(b1-4)[Fuc(a1-3)]GlcNAc
Summary of the method: as §1

[20] = molecular target: Neu5Ac(a2-3)Gal(b1-3)[GlcNAc(b1-6)]GalNAc
Summary of the method: as §1

[21] = molecular target: Neu5Ac(a2-3)Gal(b1-3)[Neu5Ac(a2-6)]GalNAc
Summary of the method: as §1

[22] = molecular target: Neu5Ac(a2-3)Gal(b1-3)[Neu5Ac(a2-6)]GlcNAc(b1-3)[Fuc(a1-3)[Gal(b1-4)]GlcNAc(b1-6)]Gal(b1-4)Glc
Summary of the method: as §1

[23] = molecular target: Neu5Ac(a2-3)Gal(b1-3)]Neu5Ac(a2-3)Gal(b1-4)]GlcNAc
Summary of the method: as §1

[24] = molecular target: Neu5Ac(a2-3)Gal(b1-4)Glc
Summary of the method: as §1

[25] = molecular target: Neu5Ac(a2-3)Gal(b1-4)GlcNAc
Summary of the method: as §1

[26] = molecular target: Neu5Ac(a2-3)Gal(b1-4)GlcNAc(b1-2)Man
Summary of the method: as §1

[27] = molecular target: Neu5Ac(a2-3)Gal(b1-4)GlcNAc(b1-2)Man(a1-3)[GlcNAc(b1-4)][Neu5Ac(a2-3)Gal(b1-4)GlcNAc(b1-2)Man(a1-6)]Man(b1-4)GlcNAc(b1-4)GlcNAc
Summary of the method: as §1

[28] = molecular target: Neu5Ac(a2-3)Gal(b1-4)GlcNAc(b1-2)Man(a1-3)[Neu5Ac(a2-3)Gal(b1-4)GlcNAc(b1-2)Man(a1-6)]Man(b1-4)GlcNAc(b1-4)GlcNAc
Summary of the method: as §1

[29] = molecular target: Neu5Ac(a2-3)Gal(b1-4)GlcNAc(b1-2)Man(a1-3)[Neu5Ac(a2-3)Gal(b1-4)GlcNAc(b1-2)Man(a1-6)]Man(b1-4)GlcNAc(b1-4)[Fuc(a1-6)]GlcNAc
Summary of the method: as §1

[30] = molecular target: Neu5Ac(a2-3)Gal(b1-4)GlcNAc(b1-2)Man(a1-3)[Neu5Ac(a2-6)Gal(b1-4)GlcNAc(b1-2)Man(a1-6)]Man(b1-4)GlcNAc(b1-4)GlcNAc
Summary of the method: as §1

[31] = molecular target: Neu5Ac(a2-3)Gal(b1-4)GlcNAc(b1-2)[Neu5Ac(a2-3)Gal(b1-4)GlcNAc(b1-4)]Man(a1-3)[GlcNAc(b1-4)][Neu5Ac(a2-3)Gal(b1-4)GlcNAc(b1-2)[Neu5Ac(a2-3)Gal(b1-4)GlcNAc(b1-6)]Man(a1-6)]Man(b1-4)GlcNAc(b1-4)GlcNAc
Summary of the method: as §1

[32] = molecular target: Neu5Ac(a2-3)Gal(b1-4)GlcNAc(b1-2)[Neu5Ac(a2-3)Gal(b1-4)GlcNAc(b1-4)]Man(a1-3)[GlcNAc(b1-4)][Neu5Ac(a2-3)Gal(b1-4)GlcNAc(b1-4)Man(a1-6)]Man(b1-4)GlcNAc(b1-4)GlcNAc
Summary of the method: as §1

[33] = molecular target: Neu5Ac(a2-3)Gal(b1-4)GlcNAc(b1-2)[Neu5Ac(a2-3)Gal(b1-4)GlcNAc(b1-6)]Man(a1-6)[Neu5Ac(a2-3)Gal(b1-4)GlcNAc(b1-2)Man(a1-3)]Man(b1-4)GlcNAc(b1-4)GlcNAc
Summary of the method: as §1

[34] = molecular target: Neu5Ac(a2-3)Gal(b1-4)GlcNAc(b1-2)[Neu5Ac(a2-3)Gal(b1-4)GlcNAc(b1-6)]Man(a1-6)[Neu5Ac(a2-3)Gal(b1-4)GlcNAc(b1-2)Man(a1-3)][GlcNAc(b1-4)]Man(b1-4)GlcNAc(b1-4)GlcNAc
Summary of the method: as §1

[35] = molecular target: Neu5Ac(a2-3)Gal(b1-4)GlcNAc(b1-3)Gal
Summary of the method: as §1

[36] = molecular target: Neu5Ac(a2-3)Gal(b1-4)GlcNAc(b1-3)Gal(b1-3)GlcNAc
Summary of the method: as §1

[37] = molecular target: Neu5Ac(a2-3)Gal(b1-4)GlcNAc(b1-3)Gal(b1-4)GlcNAc
Summary of the method: as §1

[38] = molecular target: Neu5Ac(a2-3)Gal(b1-4)GlcNAc(b1-3)Gal(b1-4)GlcNAc(b1-2)Man(a1-3)[Neu5Ac(a2-3)Gal(b1-4)GlcNAc(b1-3)Gal(b1-4)GlcNAc(b1-2)Man(a1-6)]Man(b1-4)GlcNAc(b1-4)GlcNAc
Summary of the method: as §1

[39] = molecular target: Neu5Ac(a2-3)Gal(b1-4)GlcNAc(b1-3)Gal(b1-4)GlcNAc(b1-3)Gal(b1-4)GlcNAc
Summary of the method: as §1

[40] = molecular target: Neu5Ac(a2-3)Gal(b1-4)GlcNAc(b1-3)Gal(b1-4)GlcNAc(b1-3)Gal(b1-4)GlcNAc(b1-2)Man(a1-3)[Neu5Ac(a2-3)Gal(b1-4)GlcNAc(b1-3)Gal(b1-4)GlcNAc(b1-3)Gal(b1-4)GlcNAc(b1-2)Man(a1-6)]GalNAc
Summary of the method: as §1

[41] = molecular target: Neu5Ac(a2-3)Gal(b1-4)GlcNAc(b1-3)Gal(b1-4)GlcNAc(b1-3)GalNAc
Summary of the method: as §1

[42] = molecular target: Neu5Ac(a2-3)Gal(b1-4)GlcNAc(b1-3)Gal(b1-4)GlcNAc(b1-3)[Neu5Ac(a2-3)Gal(b1-4)GlcNAc(b1-3)Gal(b1-4)GlcNAc(b1-6)]GalNAc
Summary of the method: as §1

[43] = molecular target: Neu5Ac(a2-3)Gal(b1-4)GlcNAc(b1-3)Gal(b1-4)GlcNAc(b1-6)[Gal(b1-3)]GalNAc
Summary of the method: as §1

[44] = molecular target: Neu5Ac(a2-3)Gal(b1-4)GlcNAc(b1-3)Gal(b1-4)[Fuc(a1-3)]GlcNAc
Summary of the method: as §1

[45] = molecular target: Neu5Ac(a2-3)Gal(b1-4)GlcNAc(b1-3)GalNAc
Summary of the method: as §1

B1: MSMEG3662-2a (Mycobacterium smegmatis), A0QYH7_MYCS2 (protein)
chain: MGDTLTAGQKLERGGSLQSGNGAYTLTLQDDGNLVLYARDKAVWSTGTNGQDVVRAEVQTDGNFVLYTAEKPVWHTDTKGKKEVKLVLQDDRNLVLYAKDGPAWSSKTDTTEPPPPAPEPEKEAEVAPAAAEEAAPAPVAEPAPAEPAPAAPPPAPPAPRTYTVVSGDTLWAIAERFYGDGSKYQQIADASGIANPDLIHPGQVLTIP
**Q.** How did the “glycan array binding signal (z-score)” value [1] turn out when B1 was run?
**A.** -0.124

**Q.** What about the “glycan array binding signal (z-score)” value [2] of the same binder?
**A.** -0.037

**Q.** And the “glycan array binding signal (z-score)” value [3]?
**A.** -0.111

**Q.** What about the “glycan array binding signal (z-score)” value [4] of the same binder?
**A.** -0.145

**Q.** And the “glycan array binding signal (z-score)” value [5]?
**A.** 0.022

**Q.** And the “glycan array binding signal (z-score)” value [6]?
**A.** -0.114

**Q.** What about the “glycan array binding signal (z-score)” value [7] of the same binder?
**A.** -0.039

**Q.** And the “glycan array binding signal (z-score)” value [8]?
**A.** -0.154

**Q.** And the “glycan array binding signal (z-score)” value [9]?
**A.** -0.074

**Q.** What about the “glycan array binding signal (z-score)” value [10] of the same binder?
**A.** -0.117

**Q.** And the “glycan array binding signal (z-score)” value [11]?
**A.** 0.13

**Q.** What about the “glycan array binding signal (z-score)” value [12] of the same binder?
**A.** -0.17

**Q.** And the “glycan array binding signal (z-score)” value [13]?
**A.** -0.102

**Q.** What about the “glycan array binding signal (z-score)” value [14] of the same binder?
**A.** -0.138

**Q.** And the “glycan array binding signal (z-score)” value [15]?
**A.** -0.113

**Q.** And the “glycan array binding signal (z-score)” value [16]?
**A.** -0.156

**Q.** What about the “glycan array binding signal (z-score)” value [17] of the same binder?
**A.** -0.131

**Q.** And the “glycan array binding signal (z-score)” value [18]?
**A.** 0.061

**Q.** And the “glycan array binding signal (z-score)” value [19]?
**A.** -0.05

**Q.** And the “glycan array binding signal (z-score)” value [20]?
**A.** -0.025

**Q.** And the “glycan array binding signal (z-score)” value [21]?
**A.** -0.044

**Q.** What about the “glycan array binding signal (z-score)” value [22] of the same binder?
**A.** -0.141

**Q.** And the “glycan array binding signal (z-score)” value [23]?
**A.** 0.05

**Q.** And the “glycan array binding signal (z-score)” value [24]?
**A.** 0.572

**Q.** What about the “glycan array binding signal (z-score)” value [25] of the same binder?
**A.** -0.035

**Q.** And the “glycan array binding signal (z-score)” value [26]?
**A.** 0.118

**Q.** And the “glycan array binding signal (z-score)” value [27]?
**A.** -0.055

**Q.** What about the “glycan array binding signal (z-score)” value [28] of the same binder?
**A.** -0.102

**Q.** And the “glycan array binding signal (z-score)” value [29]?
**A.** -0.026

**Q.** What about the “glycan array binding signal (z-score)” value [30] of the same binder?
**A.** -0.086

**Q.** And the “glycan array binding signal (z-score)” value [31]?
**A.** -0.11

**Q.** And the “glycan array binding signal (z-score)” value [32]?
**A.** -0.123

**Q.** What about the “glycan array binding signal (z-score)” value [33] of the same binder?
**A.** 0.088

**Q.** And the “glycan array binding signal (z-score)” value [34]?
**A.** -0.107

**Q.** And the “glycan array binding signal (z-score)” value [35]?
**A.** -0.15

**Q.** And the “glycan array binding signal (z-score)” value [36]?
**A.** -0.181

**Q.** And the “glycan array binding signal (z-score)” value [37]?
**A.** 0.065

**Q.** What about the “glycan array binding signal (z-score)” value [38] of the same binder?
**A.** 0.207

**Q.** And the “glycan array binding signal (z-score)” value [39]?
**A.** -0.05

**Q.** And the “glycan array binding signal (z-score)” value [40]?
**A.** 0.04

**Q.** What about the “glycan array binding signal (z-score)” value [41] of the same binder?
**A.** -0.087

**Q.** What about the “glycan array binding signal (z-score)” value [42] of the same binder?
**A.** -0.236

**Q.** What about the “glycan array binding signal (z-score)” value [43] of the same binder?
**A.** -0.109

**Q.** And the “glycan array binding signal (z-score)” value [44]?
**A.** 0.052

**Q.** And the “glycan array binding signal (z-score)” value [45]?
**A.** 0.101
